Assay results from the RNAGym collection of RNA variant scans (doi:10.7554/elife.90254).
The source gives no read counts; variants with many changes may rest on few reads.

B1: LINE1-mini (parent)
chain: GGCAGAGCUCAACACAGCGUGGCAAAGUGGCUGUGGCUAGACUGCC

Variants of: B1
Assay: self-cleavage, relative activity (ratio to wild type); higher = more cleavage; in vitro, sequencing; the parent is a self-cleaving ribozyme

Row | Variant | self-cleavage
1 | G1C G2C C3A C8G | 0.02
2 | G1C G2U A25U G40C | 0.06
3 | G1C G2U U9A C13A G21C C46U | 0.09
4 | G1C C3G C13A A14C G17U | 0.08
5 | G1C A6U G7U | 0
6 | G1C C15A C23U A39G | 0.01
7 | G1C C13A G44U | 0.03
8 | G1C C8G G21U U28A U34C C46A | 0.01
9 | G1C A4U A6U A26U U28C G33C | 0.03
10 | G1C A4C G7A G27A | 0.01
11 | G1C G2C C10U | 0.04
12 | G1C A14G C23U | 0.02
13 | G1C G2A U9G G19A | 0.08
14 | G1C C10G A11U C45A | 0.02
15 | G1C A4U U9G U28G C37G C42A | 0.01
16 | G1C A4U G5A G29U | 0.1
17 | G1C G2U C10A | 0.02
18 | G1C C37U G44C | 0.02
19 | G1C G2C A12C | 0.03
20 | G1C C3G G7A G29C C42G | 0.33
21 | G1C A12G C15G A25C G27U G29C G35C | 0

Row | Variant | self-cleavage
22 | G1C C10G A11U G17U A26C U28G C37A U38G | 0
23 | G1C C18A G29A G35C G36U | 0.13
24 | G1C C15A G17A G21U | 0.02
25 | G1C C13U C37A G44U | 0.02
26 | G1C C3G C15A | 0.03
27 | G1C C3A C8G C37A C46U | 0.03
28 | G1C G2A G17U G33U U34C | 0.04
29 | G1C C10A C15U G22A G40A A41G | 0.01
30 | G1C C10A C13G C42A | 0.01
31 | G1C C31A U43G | 0
32 | G1C C10A G29A | 0
33 | G1C A16G G36C | 0.02
34 | G1C A4U G19C A41G | 0
35 | G1C A11U A14U | 0.03
36 | G1C C15A C46G | 0.03
37 | G1C A12G A26C G30U G44A | 0.02
38 | G1C C3U C10A G21A | 0.01
39 | G1C A11G A16C G30C U38G | 0.02
40 | G1C A24G A41G | 0.03
41 | G1C A12U C15G C23U U43A | 0
42 | G1C C3A A6C C15U | 0.05

Row | Variant | self-cleavage
43 | G1A U34A C42U C46U | 0.04
44 | G1C A6G C10U A26U G30C U38A A41U G44A | 0
45 | G1C A4U C8A C13G G33U G40A G44A | 0.04
46 | G1C C13A A24C C31U G35U | 0.01
47 | G1C C10A C13A | 0
48 | G1C C3G A4G G27U | 0.05
49 | G1C A14G C15A | 0
50 | G1C C3U G17A A24U | 0.03
51 | G1C C13U C15G A26U | 0.03
52 | G1C A4C C10U A16C A25G C45A | 0
53 | G1C C37U A39G G40U | 0.01
54 | G1C A6C U9A C42A | 0.01
55 | G1C C10U A16G G36C | 0
56 | G1C C3A G5C G21A G33C U34C G40U A41C | 0.12
57 | G1C A4C C15A C23A | 0.01
58 | G1C C18U G29U G44C | 0.11
59 | G1C C13A U32G | 0.02
60 | G1C A6C A11C G22C U38G | 0
61 | G1C C3U A4C U28A | 0.03
62 | G1C A4C G22U | 0.04
63 | G1C C8G G35C C45U | 0.01

Row | Variant | self-cleavage
64 | G1C A4G A14C C46U | 0.04
65 | G1C C13U U28G | 0
66 | G1C A14G G33A | 0
67 | G1C A16G G30U U34C | 0.02
68 | G1C C3A A24G G35A G36C | 0.43
69 | G1C C18A G22U G36C C37G C46U | 0.01
70 | G1C A12U G35A G36U A39U G40A | 0.04
71 | G1C C18G A24U G27C | 0.03
72 | G1C C18U G27C G35A G36U C46G | 0.03
73 | G1C A11G G30C A39C | 0
74 | G1C C8U G22C G30A A39C | 0.02
75 | G1C A24U U32G G44C | 0.04
76 | G1C A25G G27C | 0.01
77 | G1C C3U G5U C8A A14G | 0.1
78 | G1C A12C A16G G40U G44A | 0.01
79 | G1C G2A G5U A25U C37A | 0.18
80 | G1C A6C C8U U34C | 0.08
81 | G1C A26G U43G | 0.11
82 | G1C A11G A25G C31G | 0.03
83 | G1C C10A G40C C46A | 0.04
84 | G1C C31G A39C | 0.01
